# Read counts are not given, so values of variants with three or more changes are uncertain.
# B1: LINE1-full (parent)
# chain: UACGUAGGUGGUUUUCCCCUGAUAGUGCUAAGGGGGCCUGGAAGUUUGGACUGGGCAGAGCUCAACACAGCGUGGCAAAGUGGCUGUGGCUAGACUGCCUCUCUGGAUUCCUCGUCACUCAGCAGGGCAUCUCUGAGAGAAAUGCC
# Variants of: B1
# Test: self-cleavage, relative activity (ratio to wild type); higher = more cleavage; in vitro, sequencing; the parent is a self-cleaving ribozyme
row,Variant,self-cleavage
1,U15A C51A G139U,1.99
2,C3U U15C A107G,1.58
3,U20G U29C A64U U87A U119C A124G,0.38
4,U62C C84U U109C A140G,0.03
5,A57G A136G A140G,0.76
6,U20A A79U U91C A129C,0.89
7,A2G U15C U108C C113A U134C A142G,1.44
8,U45C G53U U96A,0.07
9,C19A A24U G55A U62A A79G,0.05
10,A43G C71A C118U U134C A142G,0.13
11,A6G U12C U15C A30G U112A,0
12,A78G G97A A117C A129U,0.76
13,U52C U85G U132A,0
14,A59U A64U C68U U115C,0.07
15,A42G A65U A77G A92U,0.05
16,C37U U73C U85G A107U,0.04
17,U15C U26A U45C U46A U62C U73A C99U A140G,0.11
18,A24C A59G U119C A129G,0
19,U45A A69G U115C U134C,0
20,G127A A129U U130A,1.47
21,U9C G35C U39C A69U A94G U115A,0.48
22,A77U G114U U143C,1.04
23,U52A A69G U81A U104A,0.44
24,A24G A30G A43G U100C,0.44

row,Variant,self-cleavage
1,U13C A22G C37A U87A,0.17
2,A59G U81A U87C A124U U132C,0
3,A2G U12C U39C A92U,0.66
4,C71A A107G A142G,0.28
5,A57G U73A U143C,0.42
6,A77G U104A U143G,1.72
7,A22G U39A A78U U100G,2.65
8,A59G U87C A107G C128U,0
9,A65G A78G A124G A136G,0
10,C19A U23C U39G,1.86
11,A69G U100C A141G,0.29
12,U47C U62C A77G A141G,0
13,U29C G48A U100C,1.13
14,G58A A92U A107G,0.03
15,A2G U102A C131U A142G,1.36
16,U13C A42G A77U U115C,2.76
17,U39C A79U G86A A92U U96A U143A,0.03
18,G48A U100C U134C G139A U143A,2.57
19,U47C G93A A94G U96A A141G,0.19
20,A57G A77U A94G A129G,0
21,U73A U87A G97A,0.04
22,U73A G75C U130A A142G,0.73
23,C38A U52A U115G U143C,1.1
24,U62A U87C A121U,0.03

row,Variant,self-cleavage
1,G36A U39C A64G U119C U132C A141G,0
2,U26C A69G G75A A77U,0.6
3,U13C G36C U96A U115C A121U,0.05
4,G10U U47C A107G,1.77
5,U47A U73A U102C G106A,2.18
6,U29A A77G A129G A141G,1.84
7,U13A A42G U46A G53A U85C A124U,0.04
8,A77G G93U U102C,0.06
9,U5C U14C C17A U102C,0.96
10,U62C U73C U85A,0.08
11,U1C U15C A92C,0
12,U5C U14C U47C,0
13,C19U U39C U52C A67G U130A G135A,0
14,U15G A30U A42G A65U A79G,0
15,G7U U9C A124G,1.31
16,U62C U91A U134G,0.11
17,A57U A67G U104C,0
18,G7A U15C U20C A59G G93A,0.05
19,A77G A92G C99U U112C,0
20,U5C A22U U85C C146U,0.51
21,U62C U85C A121U A136G A138G,0
22,U46C A79G A138C,1.84
23,C19U U52A A124G,0.83
24,U15C A77G U104A G135A,2.34

row,Variant,self-cleavage
1,U20C C95U U130A,0.22
2,G48A U130C G139U,1.02
3,U26C U52A U96G,0.27
4,U20A A107U U112C,1.07
5,G35A U47C G114A,1.21
6,U20A A24U U45C C71A A138G,0.34
7,U12A A67G U109A,0.71
8,U9A G44A A138G,0.33
9,U26C U91A U115C,1.47
10,G7U U15C U85A,0.16
11,C3U U15C U96G,0.33
12,U12C U45C U73A A138G,2
13,A6G U14C U85C,1.02
14,A6C U73A U100C U134A,2.74
15,U14C A30G U96A,0.28
16,U73A U87A A117U,0.05
17,G34U U85C A117G,0
18,U73A U104A A136U,1.81
19,U96C U134A A136G,0.1
20,U85C C116U C120A,0.12
21,U12G A117G G122A,1.5
22,U14C A24U U96A,0.16
23,U20A U52C A107G U108G A140G,0
24,A31G A65G U134C,0.84

row,Variant,self-cleavage
1,U13C U23C A57U G72A U81G C99U A117C A138G A141G,0.09
2,A30G U62G C63U U85C A124G,0.12
3,U62C U73A A121G,0.06
4,U52A U96C U102C A129G A142G,0.71
5,U52C A79G C95U U109C,0.05
6,A64U A69U A117G,0
7,U45C U102C A142G,0.9
8,U62C C63A U108A,0.05
9,U14C A22G A129G,0.56
10,U39C U45A U62C U73C G74A U100C A138G,0
11,U85A A140G A141G,0.07
12,G4A U14G A57U,0.08
13,U26C G40A A69G U73C,0.78
14,G75A G114C U119C,1.08
15,U12C U14C U100C,0.72
16,U14C A43G U73C A77G A129G,0.92
17,U14A U26A A31U U91C,0.32
18,U87A U108C U119C,0.09
19,A2G U14C A43G A67U C84A A94G,0.26
20,A50G A65U G72U U132A,0.16
21,A77G U112C G127A A129G,2.56
22,A42U U102C A141G,0.86
23,U13C U20A C71A U73C G88A U108C,0.04
24,A65G U119C A142G,0.11

row,Variant,self-cleavage
1,A22G U26A U104A U119A G122U,0.81
2,U13C G25U U102C U143C,0.86
3,U12C U39A U81A G89A U112A A141G,0.04
4,U14C U26C G35A A50U,0.31
5,U9C U12C A31G U73A,1.23
6,U9C A31U U130C,1.28
7,U15A U73C U134C,0.73
8,A22U U104C A124G U132C,0
9,A31U U39C A78G,0.53
10,G40A A77U U81C,0.94
11,U12A U73A A78G,0.44
12,A42U A65G U104C,0
13,A2G A64U U87A,0.25
14,U26A U47G U119C U132C A136G,0.77
15,U12C U39C U62A A141G,0.03
16,U46A U100G C120U,1.55
17,C19U G80A A92G,0.06
18,A42U U52C U104C G144A,0.94
19,A6U A42G A94G U100C A142G,0
20,G7U U26C A30U U134C A136G,1.36
21,U62C U85A U130C A136G,0.16
22,A50G U104C C116U,0.6
23,U1A U45C U73C,0.53
24,U39G U52G U62C U100A,0

row,Variant,self-cleavage
1,A59G U100C U115A U132C,0
2,C19U U23C G49A A65G U119C,0.14
3,U14C A31U U39A A142G,0.64
4,A65G U96A U130C,0.09
5,A79U U102A C103A U132C,1.64
6,C17U U26C A57U A64G A129U,0
7,C51U C103U U130C A140U,0.71
8,C56U U62A U119A,0.05
9,A57G C128U U132C A140G,0.69
10,A57G A59G G105A A121G,0
11,U1C U13C G33U A107C,1.25
12,G93A A140G A142G,0.03
13,U13C A77G U91C A121G,0
14,G8A A50C A77G U85C,0
15,U13C U20G U109C C118U A140G,0.31
16,U15A U73C U91A U109C,1.84
17,U47C C133A U143A,1.21
18,U5C U23C A57U U100C G106A U112A,0.09
19,U9C A121G A138U,0.44
20,A57U A64G A79G U81C A141G,0
21,C18U C113U A121G,0.81
22,C76A A79G A94U,0.26
23,G32A A65G U108C,0.1

# Reference: the RNAGym collection of RNA variant scans (doi:10.7554/elife.90254)
